The list shows a part of the results. Shown are side measurements of this screen, not its main read-out; they come without a call. Most of these compounds were active or inconclusive in the main read-out, so they are no random draw.
Assay: beta-lactam sensitization of Mtb H37Rv, H37Rv (AID 434955);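 also: growth measured after seven days incubation then overnight dye step; 0% = bacteria only wells and 100% = bacteria with antibiotic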
Conditions: M. tuberculosis H37Rv growth with meropenem, percent inhibition; measured here: primary screen without meropenem; at 25 µM

Row | SMILES | inhibition
1 | C/C(=N\NC(=S)Nc1ccccc1C)c1ccc(O)cc1 | 21.2%
2 | O=C(Oc1c(-c2ccccc2)c(=O)n2c3c(cccc13)CC2)c1cccc([N+](=O)[O-])c1 | 33.1%
3 | COc1cc(Cl)ccc1OCc1cc(C(=O)N(C)Cc2cccc3cnccc23)no1 | 2.41%
4 | O=C(CNS(=O)(=O)c1ccc(Br)cc1)N1CCN(Cc2ccccc2)CC1 | 4.55%
5 | CCN(CC)CCNC(=O)CCn1c(=S)[nH]c2cc3c(cc2c1=O)OCO3 | 7.09%
6 | Cc1cc(C)c(C)c(S(=O)(=O)NCc2cccnc2)c1C | 0.47%
7 | COc1ccc(NC(=O)CCNS(=O)(=O)c2ccc3c(c2)c(=O)n(C)c(=O)n3C)c(OC)c1 | 7.86%
8 | Cc1ccccc1OCC(=O)Nc1ccccc1-c1ccccc1 | 0.06%
9 | Cc1cc2[nH]c(=O)c(=O)[nH]c2cc1S(=O)(=O)N1CCN(c2cccc(Cl)c2)CC1 | -5.96%
10 | CC(C)(C)Nc1nc(SCC(=O)Nc2ccccc2Cl)nc(N2CCOCC2)n1 | 3.64%
11 | COC(=O)c1ccccc1NC(=O)n1cc(C)cn1 | -5.34%
12 | Cc1ccc(O)c(NC(=O)C2=CC(c3ccco3)=NS(=O)(=O)N2C)c1 | -7.04%
13 | Cc1cc(=S)nc(-c2ccccn2)[nH]1 | 15%
14 | Cc1cc(O)cc(O)c1C(=O)Cc1cnn(-c2ccccc2)c1 | 3.24%
15 | C=CCn1c(=S)[nH]c2nc3c(cc2c1=O)COC(C)(C)C3 | 4.11%
16 | CCOCCCNC(=O)C(NC(=O)CNC(=O)c1ccccc1)c1ccc(C)cc1 (stereo unspecified) | -3.08%
17 | Cn1c(SCC(=O)N2CCCC2)nc2ccccc2c1=O | 0.84%
18 | O=c1cc(N2CCc3ccccc3C2)[nH]c(=O)n1-c1ccc(Cl)cc1 | -4.54%
19 | CN(c1ccccc1)c1nc(N)c([N+](=O)[O-])c(N2CCCC2)n1 | -0.17%
20 | O=C(C[n+]1cc(Br)cc(Br)c1)c1ccc(Cl)cc1 | 5.17%
21 | CCOc1cc(N2CCOCC2)c(OCC)cc1NC(=O)c1cc(C)cc(C)c1 | 43.8%
22 | CCOC(=O)c1oc2ccccc2c1NC(=O)c1ccccc1OC | 37.8%

Row | SMILES | inhibition
23 | Cc1cc(C(=O)O)sc1C | 4.33%
24 | CSCC[C@H](NC(=O)Cc1c(C)c2cc3c4c(oc3cc2oc1=O)CCCC4)C(=O)O | 2.34%
25 | CCC(=O)Nc1ccc(-c2ccc(N3CCC(C)CC3)nn2)cc1 | 5.15%
26 | Cc1ccc(C(=O)Nc2ccc3c(c2)OCO3)cc1Cl | 3.37%
27 | CCC(C)C(NC(N)=O)C(=O)Nc1ccc(OCc2ccccc2)cc1 (stereo unspecified) | -2.3%
28 | Cc1noc(NS(=O)(=O)c2ccc(N/C=C\C(=O)c3ccc4c(c3)OCO4)cc2)c1C | 32.3%
29 | Cc1ccccc1C(=O)Nc1ccnn1C1CCN(Cc2cnn(C(C)C)c2)CC1 | -5.05%
30 | COc1ccccc1NC(=O)CNS(=O)(=O)c1ccccc1 | -0.32%
31 | COCCSc1nc(N)c(NC(=O)c2ccco2)c(=O)[nH]1 | -5.7%
32 | COc1cnc(SCc2c(Cl)cccc2Cl)nc1Cl | -0.19%
33 | Cc1ccc(-n2ncc3c(=O)[nH]cnc32)c(C)c1 | -1.66%
34 | Cc1ccccc1NC(=O)COC(=O)Cc1cccc(C(F)(F)F)c1 | 0.27%
35 | CC(/C=C(\NC(=O)c1ccccc1)C(=O)N=Nc1c(O)[nH]c2ccc(C)cc12)=C\c1ccccc1 | 43.7%
36 | CCc1ccc(CN(C)CCc2ccccn2)cc1 | 0.01%
37 | NS(=O)(=O)c1ccc(NC(=S)NC(=O)c2ccco2)cc1 | 6.83%
38 | CN(c1ccc(C(=O)Nc2nccs2)cc1)S(=O)(=O)c1ccccc1 | 0.31%
39 | COc1ccc(N2CCN(C(=O)CCCn3nnnc3CN3CCOCC3)C(C)C2)cc1 (stereo unspecified) | -1.64%
40 | C/C(=N\NC(=O)c1ccccc1O)c1ccc(Br)s1 | 11.8%
41 | COc1cc(/C=N/n2c(C3CCCCC3)n[nH]c2=S)cc(Br)c1O | 13.8%
42 | COc1cccc(/C=C/c2[nH]c(=O)[nH]c(=O)c2[N+](=O)[O-])c1O | 42.5%
43 | Cc1ccccc1NC(=O)c1ccc(CN(c2ccccc2)S(=O)(=O)c2ccccc2)cc1 | -2.56%
44 | CC(C)=CCC/C(C)=C/C=N/NC(=O)c1ccc([N+](=O)[O-])cc1 | 35%

Row | SMILES | inhibition
45 | Cc1c(N(C)S(=O)(=O)c2cc(C(=O)N3CCCC3)ccc2Cl)c(=O)n(-c2ccccc2)n1C | -8.83%
46 | COc1ccc(-n2nc(C(=O)NCC(=O)NCc3ccco3)c3ccccc3c2=O)cc1 | -8.25%
47 | CCOC(=O)c1c(-c2ccccc2)n(C)c2ccc(O)cc12 | 2.93%
48 | Cc1ccccc1NC(=O)c1ccc(C)c(S(=O)(=O)Nc2cccnc2)c1 | 7.17%
49 | CCOc1ccccc1C(=O)NCC(=O)OCCOc1cccc(Cl)c1 | 6.74%
50 | COc1ccc(C(=O)C2CCCN(C(=O)c3ccc(F)cc3)C2)cc1OC (stereo unspecified) | 0.48%
51 | COc1ccc(OC)c(NC(=O)CSc2nc(N3CCOCC3)nc(N3CCOCC3)n2)c1 | -13%
52 | S=c1[nH]nc(C2CCCCC2)n1/N=C/c1c(Cl)cccc1Cl | 5.55%
53 | CCOC(=O)N1CCN(c2c(F)cc3[nH]c(=S)[nH]c3c2Br)CC1 | 8.41%
54 | CC(=O)c1cc2c(cc1NC(=O)c1cnc(C)cn1)OCO2 | -0.07%
55 | Cc1cccc(NS(=O)(=O)c2cc(C(=O)N3CCCCCC3)ccc2C)c1 | -12%
56 | COc1ccc(Cc2nc3ccc(C(=O)NCCc4ccccn4)cc3o2)cc1OC | 3.47%
57 | Cc1cc2c(cc1S(=O)(=O)N1CCCC1)n(C)c(=O)c(=O)n2C | -5.02%
58 | O=C(Cn1ncc2c3ccccc3n(Cc3ccccc3)c2c1=O)N1CCN(c2ncccn2)CC1 | 5.68%
59 | O=C(N1CCOCC1)N1CCC(n2nnc3ccccc32)CC1 | -6.57%
60 | CC1CCCN(C(=O)C2CCN(c3ncnc4c3nc3n4CCCCC3)CC2)C1 (stereo unspecified) | 34.5%
61 | O=C(Cc1ccccc1)NCC(=O)OCc1cccc([N+](=O)[O-])c1 | -4.63%
62 | O=C(NCCN1CCOC1=O)C1CCC(=O)N(CCc2ccc(Cl)cc2)C1 (stereo unspecified) | 0.15%
63 | Cn1cc(CNC(=O)C2CCC(=O)N(Cc3ccccc3F)C2)cn1 (stereo unspecified) | 13.3%
64 | COc1ccc(-n2cc(-c3ccccc3)c3c(NN4CCOCC4)ncnc32)cc1 | 41.9%
65 | CN1C(C(=O)Nc2ccc(F)cc2F)=CC(c2ccco2)=NS1(=O)=O | -4.63%
66 | O=C(O)c1ccc(NC(=S)Nc2ccccc2)cc1 | -1.84%

Row | SMILES | inhibition
67 | COc1ccc(CNc2oc(-c3ccccc3)nc2C#N)cc1 | -3.18%
68 | COc1ccccc1C(=O)NC(=S)Nc1ccccc1N1CCCC1 | 93.4%
69 | CCOc1ccc2ccccc2c1/C=N\NC(=O)OC | -4.84%
70 | Cc1cc(C)cc(NC(=O)N2CCC(c3nc4ccccc4o3)CC2)c1 | 2.38%
71 | O=C(C1=C(O)C(=O)N(Cc2ccco2)C1c1cccc([N+](=O)[O-])c1)c1ccco1 (stereo unspecified) | 4.96%
72 | COC(=O)c1ccc(COc2ccccc2/C=C(\C#N)C(=O)Nc2c(C)cc(C)cc2C)cc1 | -9.16%
73 | COc1ccc(-c2cc3nc(C)cc(N4CC(C)CC(C)C4)n3n2)cc1 (stereo unspecified) | 38.3%
74 | CCN(CC)CCCNC(=O)c1c(O)c2ccccc2n(Cc2ccccc2)c1=O | 32.5%
75 | O=C(CSc1nnc(NC(=O)c2ccccc2[N+](=O)[O-])s1)NC1CCCC1 | 4.71%
76 | Cc1c(-c2ccccc2)cnc2c(C)cccc12 | 13.5%
77 | Cc1ccc(S(=O)(=O)Nc2cccc3cccnc23)c([N+](=O)[O-])c1 | 22.6%
78 | CCCN(CCC)CCCNC(=O)CS(=O)Cc1nc(-c2ccc(OC)c(OC)c2)oc1C (stereo unspecified) | 2.7%
79 | Cc1nnc(SCc2cccc(Cl)c2)n(N)c1=O | 49.8%
80 | Cc1c(C(=O)Nc2ccc(-c3nnc4n3CCCCC4)cc2)oc2c1ccc1ccccc12 | -2.1%
81 | COc1cccc(C(=O)Nc2ccc3c(c2)C(=O)N(CC2CCCO2)C3=O)c1 (stereo unspecified) | 6.68%
82 | CC(C)Oc1cccc(C(=O)C2CCCN(C(=O)CCc3cnn(C)c3)C2)c1 (stereo unspecified) | 0.04%
83 | Cc1cc(C(=O)Nc2ccccc2C(F)(F)F)no1 | -0.58%
84 | COc1ccc(C(=O)Nc2ccccc2C(N)=O)cc1 | -3.67%
85 | COc1ccc(OCc2nnc3n2N=C(c2ccc(Br)cc2)CS3)cc1 | -5.2%
86 | COc1ccccc1-c1ccc(=O)n(CC(=O)NC(C)(C)C)n1 | 0.7%
87 | O=C(c1ccc2nc(Cc3cccc(Cl)c3)oc2c1)N1CCOCC1 | -0.75%
88 | COc1cc(C2C3CN(C)CC=C3C(C#N)=C(N)C2(C#N)C#N)ccc1OC(C)C (stereo unspecified) | -5.38%

Row | SMILES | inhibition
89 | COc1ccc(Cl)cc1Nc1nc(-c2sc(NC(=O)c3ccccc3)nc2C)cs1 | 6.72%
90 | O=C(CN(Cc1ccccc1)S(=O)(=O)c1ccc(F)cc1)NCc1cccnc1 | 1.7%
91 | Cc1ccc(Cn2nnnc2CN2CCC(n3nnc4cc(C)ccc43)CC2)cc1 | 98.2%
92 | C[C@@H](NC(=O)c1[nH]cnc1C(=O)Nc1ccccc1)c1ccccc1 | 96.2%
93 | COCCCNc1nc2ccccc2nc1NS(=O)(=O)c1cccc(C)c1 | 0%
94 | CC1(C)Cc2c(cnn2-c2ccccc2)C(NC(=O)CCc2ccncc2)C1 (stereo unspecified) | 3.15%
95 | CC(C)(C)N(Cc1ccccc1)C(=O)COC(=O)CN1C(=O)NC2(CCCC2)C1=O | 0.05%
96 | COc1cccc(C2=NOC(C(=O)N3CCc4ccccc4C3)C2)c1 (stereo unspecified) | -7.31%
97 | C/C(=N\NC(=O)c1c(Cl)c(C)nn1C)c1cccc(NC(=O)C2CCCC2)c1 | -1.26%
98 | O=C(Nc1ccc2c(c1)OCCO2)c1ccc(Cl)c(S(=O)(=O)N2CCCCC2)c1 | 11.4%
99 | CSc1ccc(/C=N/NC(=O)C[n+]2ccccc2)cc1 | 3.38%
100 | N=C1C(c2nc3ccccc3[nH]2)=C(O)CN1c1ccc(F)cc1 | 4.39%
101 | O=c1c2c(nc3c(-c4ccc(Cl)cc4)c[nH]n13)CCC2 | -5.07%
102 | CC(=O)Nc1ccc(NC(=S)NC(=O)C2CC2)cc1 | 6.62%
103 | COc1ccc(-c2cc(C(=O)N3CCN(S(=O)(=O)c4ccc(C)cc4)CC3)[nH]n2)cc1 | 4.84%
104 | CCCc1ccc(Oc2cc(N3CCOCC3)nc(-c3ccccc3)n2)cc1 | 17.9%
105 | Cc1cc(C(=O)Nc2ccccc2C#N)n(-c2ccccc2)n1 | -10.7%
106 | Cc1ccc(CNC(=O)Cn2c(=O)n(CC(=O)N3CCCCC3)c(=O)c3sccc32)cc1 | 0.94%

From PubChem BioAssay AID434955 (Southern Research Specialized Biocontainment Screening …, 2010)
